The campaign covered roughly 50,000 compounds. About 800 (1.6%) showed an effect of 50% or more. The list shows a part of the results.
These molecules were tested against Bcl-2-like protein 10 (Homo sapiens) (UniProt Q9HD36) (assay: TR3 peptide-Bcl-B binding displacers, biochemical primary FP assay, phenotype converters (AID 1240;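 note: 0% = Bcl-B with tracer peptide and DMSO and 100% = tracer peptide lacking Bcl-B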)). Conditions: GST-Bcl-B / FITC-TR3 peptide fluorescence polarization; stronger effect = higher value; compound at 3.75 mg/L.
UniProt Q9HD36, sequence (Q9HD36 whole entry, looked up): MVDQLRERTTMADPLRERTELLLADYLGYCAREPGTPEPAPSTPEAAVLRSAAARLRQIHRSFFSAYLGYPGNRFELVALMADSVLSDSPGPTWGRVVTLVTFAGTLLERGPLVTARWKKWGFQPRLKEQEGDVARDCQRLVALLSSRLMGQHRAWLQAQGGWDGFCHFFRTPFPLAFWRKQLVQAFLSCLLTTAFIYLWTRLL

With O=c1cnnc(N/N=C/c2ccccc2Br)[nH]1 as the molecule, how does the displacement read?
Its displacement is -12.1%.

How did the displacement turn out when CCOc1ccc(S(=O)(=O)N(CC(=O)Nc2ccc(OC)cc2OC)c2ccc(C)cc2)cc1 was run?
Its displacement is -6%.

With Cn1c(=O)c([N+](=O)[O-])c(NCC2CCCO2)c2ccccc21 (centres undefined) as the molecule, how does the displacement read?
The displacement was -10.3%.

For COc1ccc(-c2cc(C(F)(F)F)n3ncc(C(=O)N4CCOCC4)c3n2)cc1OC, which displacement is on record?
The displacement was 5.2%.

With Cc1cc(Cl)ccc1OCC(=O)O/N=C(\N)c1ccc(Br)cc1 as the molecule, how does the displacement read?
The displacement was -8.2%.

COc1ccc(OCCC(=O)c2ccc(OC)c(OC)c2)cc1 was tested. Which displacement did it give?
The displacement was 9.8%.

With COCCOC(=O)c1ccc(NC(=O)c2ccccc2CCc2ccccc2)cc1 as the molecule, how does the displacement read?
The displacement was 7.1%.

For CCc1ccccc1N=CC1=C(O)CC(c2ccccc2)CC1=O (centres undefined), which displacement is on record?
Its displacement is 13.6%.

With CS(=O)(=O)N(Cc1ccc(Cl)cc1)c1ccc(C(=O)N2CCCC2)cc1 as the molecule, how does the displacement read?
Its displacement is 9.7%.

For CCOC(=O)c1c(C)oc2cc(Br)c(O)c(CN(C)C)c12, which displacement is on record?
The displacement was 13.6%.

For COc1ccc(C(N)=O)cc1NC(=O)COc1ccc(F)cc1, which displacement is on record?
The displacement was 2.3%.

For COc1ccc(NC(=S)NC(=O)c2ccc(F)cc2)cc1, which displacement is on record?
Its displacement is 9.1%.

O=C(Nc1ccc(Cl)c([N+](=O)[O-])c1)c1ccc2c(c1)OCO2 was tested. Which displacement did it give?
The displacement was -7.2%.

For COc1ccc(C(NC(=O)c2ccc(C)cc2)NC(=O)c2ccc(C)cc2)cc1OC, which displacement is on record?
Its displacement is -4.8%.

With O=S(=O)(Nc1ccc(Cl)c2cccnc12)c1ccccc1 as the molecule, how does the displacement read?
The displacement was 10.4%.

For Cc1ccc([N+](=O)[O-])cc1NC(=O)COc1cccc(Cl)c1, which displacement is on record?
Its displacement is -5.6%.

Which displacement does the source give for CCn1c2ccccc2c2cc(NS(=O)(=O)c3ccccc3[N+](=O)[O-])ccc21 here?
The displacement was 1.4%.

O=C(NCc1cccnc1)c1c(Cl)cccc1Cl was tested. Which displacement did it give?
Its displacement is 9.6%.

Which displacement does the source give for Cc1ccc(/C=C2/SC(=S)N(CC(=O)O)C2=O)cc1 here?
The displacement was -2.1%.

For COc1ccc(NC(=O)CN(CCc2ccccc2)S(=O)(=O)c2ccccc2)cc1Cl, which displacement is on record?
Its displacement is 7.8%.

COC(=O)c1ccc(/C=C2\C=C(c3ccc(Cl)cc3)OC2=O)cc1 was tested. Which displacement did it give?
The displacement was 1.9%.

COc1ccc(/C=C/C(=O)O)cc1S(=O)(=O)NCc1ccccc1 was tested. Which displacement did it give?
Its displacement is 7.2%.

Which displacement does the source give for CC(C)(C)CC(C)(C)NC(=O)CSc1nc2ccccc2[nH]1 here?
The displacement was -15.4%.

COc1ccc(C2CC(c3ccc(C)cc3)=NN2C(C)=O)cc1 (centres undefined) was tested. Which displacement did it give?
The displacement was 13.5%.

Cc1cc(Cl)ccc1OCCCC(=O)NC1CCCCC1 was tested. Which displacement did it give?
Its displacement is -12.9%.

Which displacement does the source give for O=C(O)c1cccc(NC2=C(Cl)C(=O)N(c3ccc(Cl)cc3)C2=O)c1 here?
The displacement was 32%.

For CC(C)N(C(=O)c1ccc(Cl)cc1Cl)C(C)C, which displacement is on record?
The displacement was -5.4%.

N#C/C(=C\c1ccco1)c1nn(CCO)c(N)c1C#N was tested. Which displacement did it give?
Its displacement is -47.1%.

With CSc1ccc(C2Nc3ccccc3NC3=C2C(=O)CC(C)(C)C3)cc1 (centres undefined) as the molecule, how does the displacement read?
Its displacement is 5.7%.

Cc1cc(OCC(=O)Oc2ccccc2)c([N+](=O)[O-])cc1Cl was tested. Which displacement did it give?
Its displacement is -6.8%.

With CC(C)c1ccc(/C=C2\SC(=S)NC2=O)cc1 as the molecule, how does the displacement read?
Its displacement is -7.7%.

For Cc1nc(-c2ccccc2)sc1C(=O)Nc1ccc(Br)cc1, which displacement is on record?
Its displacement is 11.6%.

Which displacement does the source give for O=C(Nc1cccc(O)c1)c1cc2nc(-c3ccc(F)cc3)cc(C(F)(F)F)n2n1 here?
Its displacement is 1.7%.

For CCN(c1ccccc1C(=O)O)S(=O)(=O)/C=C/c1ccccc1, which displacement is on record?
Its displacement is 6.6%.

How did the displacement turn out when O=C(Nc1cccc(C(F)(F)F)c1)/C(=C/c1cccnc1)NC(=O)c1cccc(Br)c1 was run?
Its displacement is -7%.

How did the displacement turn out when Nc1ccccc1C(=O)N1CCN(c2ccc(F)cc2)CC1 was run?
Its displacement is -10.4%.

For CN(C)c1ccc(C2/C(=C(\O)c3ccc(Cl)cc3)C(=O)C(=O)N2CCCCCC(=O)O)cc1 (centres undefined), which displacement is on record?
Its displacement is -10%.

For CCOc1cccc(/C=N\NC(=O)c2cnccn2)c1O, which displacement is on record?
The displacement was -26.1%.

Which displacement does the source give for COc1ccc(/C=C/C(=O)Nc2nc3ccccc3s2)cc1S(=O)(=O)N1CCCCC1 here?
Its displacement is -10.3%.

How did the displacement turn out when COc1ccc(/C(O)=C2\C(=O)C(=O)N(CCc3ccccc3)C2c2ccc(C)cc2)cc1 (centres undefined) was run?
Its displacement is 8.4%.

COc1ccc(CC(=O)Nc2ccc(NC(=O)c3ccc(C(C)(C)C)cc3)cc2)cc1OC was tested. Which displacement did it give?
Its displacement is 7.2%.

CCOC(=O)c1c(N)sc(C(=O)Nc2ccc(Cl)cc2)c1C was tested. Which displacement did it give?
Its displacement is 40.1%.

How did the displacement turn out when CCOC(=O)CSc1nc2sc3c(c2c(=O)n1Cc1ccccc1)CCc1ccccc1-3 was run?
Its displacement is -3.7%.

For O=C1CSC2(C(=O)Nc3ccccc32)N1c1cccc(Cl)c1 (centres undefined), which displacement is on record?
Its displacement is 14.1%.

How did the displacement turn out when O=C(CSc1nnc(-c2ccncc2)n1-c1ccccc1)c1ccc([N+](=O)[O-])cc1 was run?
Its displacement is 5.9%.

O=C1OC(c2ccccc2Br)=N/C1=C\c1cccnc1 was tested. Which displacement did it give?
Its displacement is 4.7%.

S=C(Nc1ccccc1)N1CCc2ccccc21 was tested. Which displacement did it give?
The displacement was -4.7%.

Which displacement does the source give for CC(=O)c1ccc(N2C(=O)CC(SC(=NCCc3ccccc3)Nc3ccc(F)cc3)C2=O)cc1 (centres undefined) here?
The displacement was -8%.

How did the displacement turn out when COc1ccc(C2/C(=C(/O)c3ccccc3)C(=O)C(=O)N2c2cccc([N+](=O)[O-])c2)c(OC)c1 (centres undefined) was run?
The displacement was -0.7%.

For COc1c(Br)cc(Br)cc1/C=N/NC(=O)COc1ccccc1[N+](=O)[O-], which displacement is on record?
Its displacement is 8.4%.

Cc1cccc(N2C(=O)NC(=O)/C(=C/c3ccc(Cl)c(Cl)c3)C2=O)c1 was tested. Which displacement did it give?
The displacement was -18.1%.

Which displacement does the source give for O=C1CCCC2=C1C(c1cccc([N+](=O)[O-])c1)Nc1ccccc1N2 (centres undefined) here?
The displacement was 0.9%.

Which displacement does the source give for CC(C)c1ccc(/C=C/C(=O)N2CCN(c3ccc(F)cc3)CC2)cc1 here?
The displacement was 9.6%.

For Cc1ccc(-c2cc(NC(=O)c3ccncc3)n[nH]2)cc1, which displacement is on record?
Its displacement is 6.7%.

Which displacement does the source give for Cc1ccc(N2C(=O)C(Cl)=C(N3CCN(c4ccccc4)CC3)C2=O)c(C)c1 here?
The displacement was 8.6%.

Which displacement does the source give for Cc1cc(C)cc(N2C(=O)NC(=O)/C(=C\c3cc(Cl)c(OCC(=O)O)c(Cl)c3)C2=O)c1 here?
The displacement was -13.5%.

How did the displacement turn out when CCCC(=O)Nc1ccc(NC(=O)c2cccc3c(Br)cccc23)cc1 was run?
Its displacement is 6.4%.

With Oc1ccc2ccccc2c1C1NN=C(c2ccccc2)S1 (centres undefined) as the molecule, how does the displacement read?
Its displacement is -7.7%.

With Cc1nc2ccccc2n1C1CC(=O)N(c2ccc(Br)cc2)C1=O (centres undefined) as the molecule, how does the displacement read?
The displacement was -4.7%.

c1ccc(Nc2nc3c(s2)CCc2ccccc2-3)cc1 was tested. Which displacement did it give?
The displacement was 28.6%.

For COc1cccc(OCCNc2cc(Cl)ccc2[N+](=O)[O-])c1, which displacement is on record?
Its displacement is 15%.

For CSc1n[nH]c(NC(=O)c2cc(F)c(F)c(F)c2F)n1, which displacement is on record?
Its displacement is -8.5%.

For O=c1oc2cc(O)c(Cl)cc2c2c1CCCC2, which displacement is on record?
Its displacement is 3.9%.

Which displacement does the source give for Cc1ccc(C(=O)NNC(=O)C2CCCO2)cc1 (centres undefined) here?
Its displacement is -13.5%.

For O=C1c2ccccc2C(=O)c2c1cc(Cl)cc2N1CCCCC1, which displacement is on record?
Its displacement is 2.8%.

O=C(c1cc(-c2ccccc2)nc2ccccc12)N1CCOCC1 was tested. Which displacement did it give?
The displacement was 4.5%.

How did the displacement turn out when CN(C)CCn1c2ccccc2c2nc3ccc([N+](=O)[O-])cc3cc21 was run?
Its displacement is 22.9%.

For O=C(NCc1ccco1)c1ccc(-c2ccccc2)cc1, which displacement is on record?
The displacement was 1.2%.

How did the displacement turn out when CCN(CC)CCCOc1c(Cl)cccc1Cl was run?
The displacement was 1%.

From PubChem BioAssay AID1240 (Sanford-Burnham Center for Chemical Genomics, 2008)
